PubChem BioAssay AID463173 (ICCB-Longwood Screening Facility, Harvard Medical School, 2010)
The campaign covered roughly 52,000 compounds. About 4,300 (8.3%) were called active. Rule as the data show it: active = survival mostly below about 52% (no sharp cut-off); inactive = mostly above about 56%. This is one part of the list.

The compounds below were run on DeltatarO mutant (assay: S. aureus survival, RN4220 and DeltatarO strains – OD600, teichoic acid synthesis inhibitors, primary screen (AID 463173)). Conditions: S. aureus RN4220 wild type/DeltatarO growth, OD600, 18 h, active compounds read low, screened at 18.75 µg/mL (by protocol).

SMILES | survival
Cn1c(=O)c2c(-c3ccccc3)n3c(c2n(C)c1=O)C(c1cc(Cl)ccc1O)Nc1ccccc1-3 (stereo not given) | active: 1%
O=C(CSc1nnc(-c2cccnc2)o1)OC1CCCCC1 | inactive: 53%
CSc1nc(NC(C)C)nc(N(C)C(N)=O)n1 | inactive: 104%
Cc1ccc2cccc(NC(=O)c3ccc(-c4ccc(Cl)cc4Cl)o3)c2n1 | inactive: 67%
COc1ccc(OC)c(CNC(=O)c2cc(=O)[nH]c3ccc(S(=O)(=O)N4CCCCC4C)cc23)c1 (stereo not given) | active: 6%
Cc1cccc(-n2ncc(C(=O)NCc3ccc4c(c3)OCO4)c2C2CCN(C(=O)OC(C)(C)C)CC2)c1 | inactive: 91%
CCc1ccc(NS(=O)(=O)c2ccc3[nH]c4c(c3c2)CCCCCC4)cc1 | inactive: 86%
Cc1ccc(CNC(=O)CSc2c(C(C)C)cnc3c2c(=O)n(C)c(=O)n3C)cc1 | inactive: 85%
O=C(CSCc1ccc(F)cc1)NCc1ccc(F)cc1 | inactive: 94%
Cc1cccc(CC(=O)N2CC(=O)Nc3ccc(F)cc3C2c2ccccc2)c1 (stereo not given) | active: 53%
COc1cc(NC(=O)CCCc2nnc3n(C)c(=O)c4sccc4n23)cc(OC)c1OC | inactive: 76%
CCc1ccccc1NC(=O)Nc1ccc2snnc2c1 | active: 41%
CC(C)c1ccc2nc(SCC(=O)N3CCCC3)c(C#N)cc2c1 | inactive: 92%
CCC(CC)C(=O)N1CCc2cc(OC)c(OC)cc2C1COc1ccc(F)cc1 (stereo not given) | inactive: 73%
O=C(NCC1CC1)Nc1c[nH]c2ccccc2c1=O | inactive: 92%
CCOC(=O)c1c(-c2ccccc2)csc1NC(=O)c1nc(SCC)ncc1Cl | inactive: 87%
Cc1ccc(-c2nc3scc(CCNS(=O)(=O)c4ccc(Oc5ccccc5)cc4)n3n2)cc1 | inactive: 115%
CCc1cccc(C)c1NC(=O)CN1C(=O)c2cccc3cccc1c23 | inactive: 61%
COCCNC(=S)N1CCCN(c2nc3cc(C)ccc3cc2C#N)CC1 | inactive: 96%
Cc1ccc2nc(CSc3nnc(NC(=O)c4ccc(C(C)(C)C)cc4)s3)cc(=O)n2c1 | inactive: 81%
CC(=O)Nc1ccc(NC(=O)c2ncoc2-c2ccco2)cc1 | inactive: 71%
CCOc1cc(/C=C(\C#N)C(=O)Nc2ccc(OC)cc2)ccc1OCc1cc(=O)n2nc(CC)sc2n1 | active: 55%
CC(C)(C)OC(=O)N1CCC(c2c(C(=O)NCCN3CCOCC3)cnn2-c2ccc(F)cc2F)CC1 | active: -1%

SMILES | survival
COc1ccc(-c2cccc(NS(=O)(=O)c3ccc(NC(C)=O)cc3)c2)nn1 | inactive: 84%
CCOc1ccccc1Nc1nc2c(S(=O)(=O)c3ccc(C)cc3)nnn2c2ccsc12 | inactive: 37%
Cc1oc(-c2cccc(Br)c2)nc1Cn1c(SCc2cccc(F)c2)nc2cccnc21 | inactive: 80%
O=C(CCC1N=C2c3ccccc3N=C(SCc3cccc(Cl)c3)N2C1=O)NCCc1ccccc1 (stereo not given) | inactive: 63%
COc1ccc(NC(=O)CCS(=O)(=O)c2ccc3c(c2)n(C)c(=O)c(=O)n3C)cc1Cl | inactive: 91%
COc1ccc(Br)cc1CNC(=O)CSc1n[nH]c(-c2ccccc2)n1 | inactive: 73%
CCC(C)[C@H](N)c1nnc(SCc2ccc(Cl)c(Cl)c2)o1 (stereo not given in full) | inactive: 47%
CCC(C)(C)n1nnnc1C(c1ccc(Cl)cc1)N1CCN(c2nc3ccccc3s2)CC1 (stereo not given) | inactive: 90%
Cc1ccc(CN2C(=O)C3(c4ccccc42)N(c2ccc(C)c(Cl)c2)C(=O)CS3(=O)=O)cc1 (stereo not given) | inactive: 54%
CCc1nc2sc3c(N4CCCCC4)ncnc3c2c2c1CCCC2 | inactive: 175%
COc1cccc(/C=C(\C#N)C(=O)Nc2ccc(NC(C)=O)cc2)c1OC | inactive: 89%
COc1ccc(NC(=O)CSc2cn(CCNC(=O)c3ccc(OC)cc3)c3ccccc23)cc1 | inactive: 69%
CC(C)(C)c1ccc(-c2nnc(-c3ccccc3NC(=O)c3cccc(C(F)(F)F)c3)o2)cc1 | inactive: 69%
CCCN1C(=O)C(Cc2nc3ccccc3c(=O)n2CC)c2cc(Br)ccc21 (stereo not given) | active: 34%
Cc1ccc2[nH]cc(C(=O)N3CCCCC3)c(=O)c2c1 | inactive: 89%
Cc1sc(NC(=O)Nc2ccccc2)c(C(N)=O)c1C | inactive: 105%
CC(C)CC1CC(C)(C(=O)CSc2n[nH]c(-c3ccccc3)n2)OC1=O (stereo not given) | inactive: 80%
OCCNc1nc(N2CCOCC2)ncc1F | inactive: 100%
Cc1ccc(C)c(Cn2c(=O)n(Cc3ccccc3)c(=O)c3sc4ccccc4c32)c1 | inactive: 76%
CC1=C(C(=O)Nc2ccccc2)C(c2ccc(O)cc2)n2nc(-c3ccc(Cl)cc3)nc2N1 (stereo not given) | inactive: 51%
Cc1oc2ccc(O)c(CN3CCC(C)CC3)c2c1C(=O)Nc1ccccc1 | inactive: 72%
COc1ccc2c(c1)NC(c1ccc(Cl)cc1)=NC(c1cccs1)=N2 | inactive: 61%
Cc1ccc(S(=O)(=O)NCCSc2nnnn2-c2ccccc2)cc1 | inactive: 71%

SMILES | survival
CCn1c(CN2CCCCC2)nc2cc(NC(=O)COc3ccc(C(C)(C)C)cc3)ccc21 | inactive: 93%
CCc1ccc(S(=O)(=O)NCCc2csc3nc(-c4ccccc4)nn23)s1 | inactive: 109%
CC(C)(C)c1ccc(-c2nc3cc(NC(=O)c4cccc(Br)c4)ccc3o2)cc1 | inactive: 73%
COc1cccc(CNC(=O)Cn2ncc3c4ccccc4n(Cc4ccccc4)c3c2=O)c1 | inactive: 100%
COc1ccc(-n2ccn(CC(=O)NCCc3ccccc3)c(=O)c2=O)cc1OC | inactive: 109%
COc1cccc(C(=O)NCc2nc(-c3ccccc3)no2)c1OC | active: 43%
Cc1ccc(OC(=O)C23CC4CC(CC(C4)C2)C3)cn1 | inactive: 107%
CCC1CCCCN1C(=O)c1ccccc1F (stereo not given) | inactive: 97%
CCOc1ccccc1CNC(=O)c1cnc2sc(N3CCCCCC3)nn2c1=O | inactive: 83%
CCOc1ccccc1NC(=O)c1c(NC(=O)c2ccccc2)sc2c1CCCC2 | inactive: 58%
CCc1ccc(Oc2c(C(F)(F)F)oc3c(CN4CCN(C)CC4)c(O)ccc3c2=O)cc1 | inactive: 127%
O=C(Cn1cc(SCc2cccc(Cl)c2)c2ccccc21)N1CCCCCC1 | inactive: 74%
CCOC(=O)C1(C)NC(c2ccc(F)cc2)C2C(=O)N(CC)C(=O)C21 (stereo not given) | inactive: 82%
O=C(Cn1c(=O)n(Cc2ccc3c(c2)OCO3)c(=O)c2oc3ccccc3c21)Nc1ccc(F)cc1 | inactive: 85%
Cc1cccc(NC(=O)CCc2c(C)nc3nc(CNC(=O)c4cccc(F)c4)nn3c2C)c1 | inactive: 81%
CC(=O)Nn1c(C)nc2ccccc2c1=O | inactive: 75%
CCN(CC)C1=CC(=O)OC12CCCCC2 | inactive: 107%
COc1ccc(Cn2c(SCc3ccc(C(=O)NC4CCCC4)cc3)nc3cccnc32)cc1 | inactive: 69%
Cc1ccc(NC(=O)c2ccc(=O)n(CC(=O)Nc3cccc(C)c3)n2)cc1 | inactive: 72%
Cc1cccc(C(c2sc3nc(-c4ccco4)nn3c2O)N2CCN(c3ccccc3)CC2)c1 (stereo not given) | inactive: 76%
Cc1ccc(NC(=O)c2ccc(NC(=O)N3CCSc4nc(C)cc(C)c43)cc2)c(Cl)c1 | inactive: 119%
O=C(Cn1nc2c(cc1=O)CCCC2)Nc1ccccc1C(F)(F)F | inactive: 102%
COC(=O)c1ccccc1NC(=O)c1cc2nc(-c3ccc(OC)cc3)cc(C(F)(F)F)n2n1 | active: 36%

SMILES | survival
O=C(CSc1nnc2c(n1)[nH]c1ccccc12)Nc1ccccc1 | inactive: 89%
CCn1cc(CNC(=O)c2cc(-c3ccc(C)c(C)c3)nc3ccccc23)c(C)n1 | inactive: 123%
CC1CCCCN1C(=O)Cn1c(SCC(=O)N(C)c2ccccc2)nc2ccccc21 (stereo not given) | inactive: 54%
COC(=O)/C(=C\c1c[nH]c2ccccc12)NC(C)=O | inactive: 77%
COC(=O)C1CCN(C(=O)c2ccc(NC(C)=O)cc2)CC1 | inactive: 94%
CCC(=O)NCc1cc(-c2nn(C)c(=O)c3ccccc23)ccc1OC | inactive: 57%
CCn1cc2nc(SCC(=O)Nc3ccc(C)cc3C)n(Cc3ccc(C)cc3)c(=O)c2n1 | inactive: 124%
Cc1ccc(C)c(NC(=O)c2ccc3nc(CCc4ccccc4)oc3c2)c1 | inactive: 55%
O=C(CSc1n[nH]c(-c2ccccc2Cl)n1)N1CCN(c2ccccc2)CC1 | inactive: 94%
CCOC(=O)CNS(=O)(=O)c1cc(-c2nnc(Nc3cccc(O)c3)c3ccccc23)ccc1C | active: 39%
C=CCN1Cc2c(sc3c2CCCC3)N(C(=O)c2ccccc2)C1 | inactive: 87%
CCCc1ccc(C2Sc3ccccc3NC3=C2C(=O)c2ccccc23)cc1 (stereo not given) | inactive: 94%
O=C(CSc1nc(-c2ccc(F)cc2)[nH]c1-c1ccccc1)NCC1CCCO1 (stereo not given) | inactive: 82%
COc1ccc(-c2nnc(SCC(=O)NCc3ccc(C)cc3)nc2-c2ccc(OC)c(OC)c2)cc1OC | inactive: 76%
CCCCOc1cccc(C2c3c(oc4ccccc4c3=O)C(=O)N2c2ccccn2)c1 (stereo not given) | inactive: 73%
CCS(=O)(=O)N1CCC(n2c(C(F)(F)F)nc3cccnc32)CC1 | inactive: 76%
CC(=O)Nc1ccc(-c2cn(CC(=O)NN)cn2)cc1 | inactive: 111%
COc1ccccc1N1CCN(c2ncccc2-c2nc(-c3ccc(Cl)cc3)no2)CC1 | inactive: 66%
N#CC(C#N)=Cc1ccc(-c2ccc3c(c2)COC3=O)o1 | inactive: 90%
CCc1ccc(C(=O)c2cn(CC(=O)Nc3ccc(OC)c(OC)c3)c3ccc(C)cc3c2=O)cc1 | inactive: 63%
Cc1cc(C)c(NC(=O)CSc2nc3nc(C)cc(C)n3n2)c(C)c1 | inactive: 141%
